Results published in ChEMBL document CHEMBL4888484, “Replenishing the malaria drug discovery pipeline: Screening and hit evaluation of the MMV Hit Generation Library 1 (HGL1) against asexual blood stage Plasmodium falciparum ,using a nano luciferase reporter read-out” (2022).
Out of some 150,000 compounds screened, about 540 (0.36%) showed an effect of 50% or more. The list shows a part of the results.

system: Plasmodium falciparum; experiment: Primary screen in NF54 nanoGlo assay, in single point, at 2uM, 72h; a lower Z score goes with more inhibition; assay type: functional, Erythrocyte; details: timepoint 72 hour

SMILES | % Inhibition [%] | Z score
CC1(C)C(=O)N(Cc2cnn(CCF)c2)C(=O)N[C@@H]1c1ccccc1 | 0 | 0.03
O=C(NCCc1ccc(F)cc1)[C@@H]1CCCN1C(=O)Nc1ccc2c(c1)OCCO2 | -12 | 1.35
Cc1cc(C)c(CN2CCO[C@]3(CNCCOC3)C2)c(-n2cccn2)c1 | 3 | -0.62
Cc1cc(C)n([C@@H](C)C(=O)NCCc2nc3c(F)cccc3n2C)n1 | -18 | 2.86
N#Cc1ccccc1CN1CCN(C(=O)C2CCCC2)CC1 | -13 | 1.15
CC(C)OCCCNc1ccccc1S(N)(=O)=O | 1 | -0.08
CO[C@@H](C)c1nnc(NC(=O)c2ccncc2Cl)s1 | -2 | 0.34
Cc1n[nH]c(=O)nc1NC1CCCCC1C (stereo unspecified) | 1 | -0.18
CCOc1ccc(C(=O)N2CCN(c3cc(-n4cnc(C)c4C)ncn3)CC2)cc1 | -28 | 2.46
CC(C)C(C)NC(=O)CNC(C)(CO)C1CCCCC1 (stereo unspecified) | 0 | 0.03
CC[C@H](NC(=O)c1ccn(C(C)C)n1)c1ncnn1CC | -2 | 0.19
Cc1noc(Cn2c(=O)c3ccccc3n(CC(=O)Nc3ccc(F)cc3F)c2=O)n1 | 38 | -5.48
C[C@@H](C(=O)NCC(F)(F)F)N(C)CC1CCC1 | 3 | -0.37
CC(=O)N[C@H]1CCO[C@@H]1c1ccnn1C(C)C | 6 | -1.12
COc1ccc(C(=O)NCc2cc3cc(Cl)ccc3[nH]2)cc1COc1ccccc1Cl | -12 | 1.47
CC(NC(=O)[C@@]12CCCC[C@H]1CN(C(=O)OC(C)(C)C)C2)c1ccncc1 (stereo partly specified) | 0 | -0.03
c1ccc([C@H](NCc2cccnc2)c2ccc3c(c2)CCCO3)cc1 | -2 | 0.29
CO[C@H]1COC[C@@H]1NC(=O)c1cnc2c(c1)CCCC2 | -4 | 0.47
CCc1ccc2ncn(C[C@H]3CCN(C)C3)c(=O)c2c1 | 6 | -0.79
Cc1c(Cn2ccnc2-c2ccc3c(c2)CC(C)(C)O3)cnn1C | -12 | 1.57
CCOCCNC(=O)NCc1ccc(Br)cc1F | -3 | 0.43
O=C(NCCNC(=O)N1CCc2c(F)cc(F)cc2C1)c1ccn[nH]1 | -19 | 2.45

SMILES | % Inhibition [%] | Z score
CN(CCc1ccccc1Cl)CC(=O)N1CCCC1 | -13 | 1.17
Cn1nc(-c2ccc(F)cc2C(F)(F)F)nc1N1CCOCC1 | 0 | -0.05
Cc1cccc(C)c1OCC(=O)NCCC(C)C | -27 | 3.18
N#Cc1ncn(CC(=O)N2CCN(CC(=O)Nc3ccccc3C(F)(F)F)CC2)n1 | -12 | 2.21
CC(C)COc1cccc(CN[C@H]2CC[C@@H](CO)C2)c1 | 3 | -0.62
O=C(Nc1ccc2c(c1)OCO2)c1nn2c(C(F)(F)F)cc(-c3ccccc3)nc2c1Br | -4 | 0.67
CCc1ccc(S(=O)(=O)Nc2ncn(Cc3ccncc3)n2)s1 | 6 | -0.91
CCc1nc2c(s1)[C@@H](N(C)Cc1noc(C(C)C)n1)CCC2 | -8 | 1.23
O=C1CC[C@](C(=O)N2Cc3cccc(F)c3C2)(c2ccccc2)CN1 | 30 | -3.4
CN(CCN)c1ccc(Br)cc1C#N | 36 | -0.87
C[C@@H](C1CC1)n1cc(NC(=O)N2CCN(c3cccs3)CC2)cn1 | 0 | 0.04
Cc1ccc(NC(=O)NC(C)(C)C)cc1C | -4 | 0.59
O=C([C@@H](O)c1ccccc1)N1CCC(c2nccn2Cc2ccccc2)CC1 | -14 | 1.55
COCC(C)NC(C(N)=O)c1ccc(Br)cc1F (stereo unspecified) | -12 | 1.24
CC(=O)N1CC[C@@]2(O)CCN(CC(c3ccccc3)c3ccccc3)C[C@H]2C1 | -6 | 1.06
O=C(CCc1conc1-c1ccccc1F)NCC1CCCCC1 | -10 | 1.31
CCC[C@H]1CN(C(=O)c2scc3c2OCCO3)C[C@@H]1NS(C)(=O)=O | 13 | -1.78
Cc1cc(C(=O)N2CCNC(=O)c3c(C)cccc32)c2ccccc2n1 | 0 | 0.06
O=C(CCC(=O)NCc1ccccc1)NCCCN1CCOCC1 | 34 | -0.55
Cc1ccc(/N=C(\NCCN2CCOCC2)NC(=O)c2ccc3c(c2)OCO3)cc1 | -29 | 2.62
COc1ncccc1NC(=O)N1CCC[C@H]1c1ccncc1 | -5 | 0.77
